The record followed here is the supplement of paper PMC11417369.

± gives the standard deviation of the averaged measurements. This is one part of the list.

In the test the test system is PfAP2-G AP2 domain (GST-tagged). The test is described as follows: gcPBM binding intensity (ln(normalized median fluorescence intensity)); higher = stronger DNA binding. In short, it runs like this:
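An Agilent 4 × 180k array carrying primer-extended double-stranded 36-bp intergenic genomic probes and negative controls received GST-tagged P. falciparum DNA-binding domains expressed in E. coli, about 25 μg on average, for 1 h. The binding buffer contained 1× PBS, 1% milk, 0.2 mg/ml BSA, 0.5% salmon testes DNA and 0.03% Triton X-100. Binding intensity is the top Masliner-normalised natural-log median intensity across replicate spots of either probe orientation, read after Alexa488 anti-GST antibody staining and a 488 nm scan.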
With “TTATAGAACTATATTGCACACATAATATATATATAT [CACACA_site9042]”, the “gcPBM binding intensity (ln)” value was 10.1 ± 0.18.
To “TATAAAAATAAGCACACACACAAATATATATTTATT [CACACA_site922]” belongs 10.1 ± 0.26.
As for “AAAAAAAAAAAAAAAGGTACACAAATACGTCCTGCA [XGTACX_site3354]”, the “gcPBM binding intensity (ln)” value came out at 11.5 ± 0.74.
Take “GTTATAACTCAAATATGTACATATTATAAAACATAT [XGTACX_site6693]”: the “gcPBM binding intensity (ln)” value turned out to be 11.2 ± 0.86.
In the case of “AATTATCAAAGTCTATACATACATACATACATACAT [GTGCAC_negctrl_site243]” it was 10.5 ± 0.38; in that of “TAATTATAATAAAAAGGTACAGAAAAGTTATACTCA [XGTACX_site6111]”, 11.1 ± 0.67; in that of “ATAAAATAAATAAATATAAATATATATATATATATA [TGCATGCA_negctrl_site358]”, 9.7 ± 0.37.
With “CACTCTTAAAATAAGGTGCACTATATAACGTGATTA [GTGCAC_site9422]”, the “gcPBM binding intensity (ln)” value was found to be 10.4 ± 0.42.
Consider TATACATATTTACAAGTGCATAATATTTTACAAAAA, for which the “gcPBM binding intensity (ln)” value worked out at 10.1 ± 0.26.
To “GAAATAATTGTTAAAGGTACACAATGCATATACAAT [XGTACX_site238]” belongs 11.3 ± 0.67.
As for “ATAATATATACTAAAAGTACATATTATAATAAATTA [XGTACX_site6749]”, the “gcPBM binding intensity (ln)” value was 11.1 ± 0.95.
Take “CATATATTATTTAATAGTACATATAAAAGAAAAAAA [XGTACX_site4643]”: the “gcPBM binding intensity (ln)” value came out at 11.1 ± 0.49.
To “TATATAAATAAATGTGTACACACATTAAAATCAAAC [CACACA_site8733]” belongs 11.6 ± 1.1; to “TATATACATATATATACACACATATATATATTTTAT [CACACA_site3788]”, 9.77 ± 0.085; to “ATTTATTTATTTTTTTGTACGAATGTTGCACATATA [XGTACX_site4101]”, 10.8 ± 0.37.
Take “ACTTCATTTTTTTTATGTACACAGAAGATTTACAAA [XGTACX_site4021]”: the “gcPBM binding intensity (ln)” value was found to be 11.5 ± 0.87.
On to “AGGAAAATAGAAAAAGCACACATATATTTTGGAATG [CACACA_site8080]”, for which the “gcPBM binding intensity (ln)” value turned out to be 9.93 ± 0.11.
For the sequence “ACATATGTATGAATATCAAAAAATCCCTATTTAATG [GTGCAC_negctrl_site27]”, the “gcPBM binding intensity (ln)” value came to 10.04 ± 0.078.
In the case of “AAAATAATAATTAATACATGCATTAATTCTTTTTTT [TGCATGCA_site741]” it was 9.43 ± 0.28; in that of ATTTTCACCTGAACGGTGCATATTTAATTTTAGGTT, 10.1 ± 0.13.
As to ATATATGTACAAATTGTGCGCAATAATTTTGTCTTT, the “gcPBM binding intensity (ln)” value stood at 11.1 ± 0.54.
In the case of “ATAGAAACATATTGACGTACAGTATAATAATACAGT [XGTACX_site197]”, the “gcPBM binding intensity (ln)” value was 11.6 ± 1.
On to “AAATCAACTTATTTTTGTACATATATTTATTATATA [XGTACX_site2925]”, for which the “gcPBM binding intensity (ln)” value amounted to 11 ± 0.47.
To “TCTTTATGTAAGGTCTTCCACAAAAAAATTAAAAAA [TGCATGCA_negctrl_site229]” belongs 10.2 ± 0.32; to “GAAAAATTAATAAATAAACACACATATATATATATA [CACACA_site8835]”, 10.4 ± 1.1; to “ATATATTATAGAGGTGTGCACTACATACATTATAAT [GTGCAC_site9991]”, 10.6 ± 0.35.
Consider “AAAAAAAAAAAAAGTTGTACATTATTTTCCTAATTC [XGTACX_site7998]”, for which the “gcPBM binding intensity (ln)” value came to 11.2 ± 0.62.
Regarding “TATATTATATGTATTGCACACCTTCAACAACTACTT [CACACA_site8121]”, the “gcPBM binding intensity (ln)” value came to 10.12 ± 0.092.
To “TTTAATTAGGATAATTGTACTGAACTAAGTATATTT [XGTACX_site1871]” belongs 10.8 ± 0.6; to “GAATGAAAATAAAATTGTACACATATCTATATCTAT [XGTACX_site2642]”, 11.4 ± 0.71; to “TTTTATAAATCTAAACGTATCTAAATGAATAATTAA [GTGCAC_negctrl_site44]”, 9.92 ± 0.057.
Regarding “ATATGTATTAAGTGTACACATATAATGGGTTTGTTA [CACACA_site5682]”, the “gcPBM binding intensity (ln)” value turned out to be 11.7 ± 0.95.
To “ATACATATATATGTGTGTACATATGTGTATACATTT [XGTACX_site6544]” belongs 11.3 ± 0.81; to “CACAAACAAAAACACACACACACACCCACAAAAATG [CACACA_site2429]”, 10.6 ± 0.34; to “TATATTTTTTTTGTGCGTACATACCATTTTAATAAT [XGTACX_site2751]”, 11.7 ± 0.8.
In the case of “TATTTTTATATAATGTGTACTTATACCTTATTTTTT [XGTACX_site1658]”, the “gcPBM binding intensity (ln)” value came out at 11.4 ± 0.84.
With “TATTATTTTATGAATACACACATATACGAAAATATT [CACACA_site964]”, the “gcPBM binding intensity (ln)” value came out at 10.1 ± 0.22.
On to “AATTATTGTATGCTATACGTTCCCCTCTAATTTATC [CACACA_negctrl_site1052]”, for which the “gcPBM binding intensity (ln)” value stood at 10 ± 0.099.
Regarding “ATTGGGTACAAATACACACACATATAAATATTAATA [CACACA_site7173]”, the “gcPBM binding intensity (ln)” value was determined as 11.1 ± 0.93.
Regarding “TTTTTAAATTATTGCACACAAAAATGAAAGGAAAAA [CACACA_site1455]”, the “gcPBM binding intensity (ln)” value was 10.3 ± 0.26.
Turning to “AAAAAAAAAAAACACACACACACACTAATACATACA [CACACA_site8135]”, the “gcPBM binding intensity (ln)” value was 10.12 ± 0.078.
Regarding “TTTCCCTACCAAAAATGTACTTATAAGCGTTTTTAT [XGTACX_site739]”, the “gcPBM binding intensity (ln)” value was determined as 11 ± 0.6.
Regarding “AAGTAAAAAAATAGCACACACACAAAAACACAGACA [CACACA_site4839]”, the “gcPBM binding intensity (ln)” value amounted to 10.4 ± 0.35.
In the case of “AAAGGGATGTTCATTCTTTTTTTTTTTTTTGTATAT [CACACA_negctrl_site511]”, the “gcPBM binding intensity (ln)” value amounted to 9.46 ± 0.28.
